This list was built around the results that the source calls inconclusive (neither active nor inactive); the mix of calls is not that of the screen. Potencies beside an inconclusive call are fits to weak or partial responses and may not hold up. Activity calls are given as the source filed them. The call rests on the fitted dose curve; in most records, active means well fitted inhibition curve with a large enough effect; inconclusive means small, poorly fitted or top-dose-only effect; inactive means flat fitted curve, though single readings scatter.
The molecules below were run against Dual specificity protein kinase CLK4 (Homo sapiens) (UniProt Q9HAZ1) (assay: qHTS Assay for Inhibitors of CDC-like Kinase 4 (ADP-FP Assay) (AID 1795;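 further: recombinant human CLK4 phosphorylating RS repeat peptide at 1 µM ATP; nearly all actives have a fitted effect of over 60% in size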)). Settings: Transcreener ADP fluorescence polarization; series mostly up to 50 µM.
UniProt Q9HAZ1, sequence (Q9HAZ1 whole entry, looked up): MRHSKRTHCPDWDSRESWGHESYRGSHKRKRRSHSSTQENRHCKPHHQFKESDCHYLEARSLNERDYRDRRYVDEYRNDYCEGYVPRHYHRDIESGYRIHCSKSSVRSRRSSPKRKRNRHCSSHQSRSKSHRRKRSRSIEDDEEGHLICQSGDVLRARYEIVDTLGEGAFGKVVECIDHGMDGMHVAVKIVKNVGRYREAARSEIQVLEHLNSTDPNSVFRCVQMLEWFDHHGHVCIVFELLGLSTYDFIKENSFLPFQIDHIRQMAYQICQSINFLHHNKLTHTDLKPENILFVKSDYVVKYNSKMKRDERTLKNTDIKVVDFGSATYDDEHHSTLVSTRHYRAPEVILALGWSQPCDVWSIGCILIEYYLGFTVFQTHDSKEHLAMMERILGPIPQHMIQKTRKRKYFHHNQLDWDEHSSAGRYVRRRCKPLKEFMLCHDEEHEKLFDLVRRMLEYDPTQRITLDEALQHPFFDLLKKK
Method in brief: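 Inhibition of ADP formation by 6.25 nM Clk4 is measured using 1 uM ATP and 100 uM RS repeat peptide over one hour. Produced ADP displaces a fluorescent tracer from antibody, lowering polarization.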
Potency means the concentration at half of the fitted maximal effect; tags describe the fitted curve by direction and shape.

Potency, active:
Cc1ccccc1-c1ccc2ncnc(NCc3cccnc3)c2c1 11.2 µM, COc1cccc(-c2ccc3ncnc(N4CCOCC4)c3c2)c1 1.12 µM

Potency, inconclusive:
COc1ccc(CNc2ncnc3ccc(-c4cccc(NS(C)(=O)=O)c4)cc23)c(OC)c1 8.91 µM [falling, partial curve], COc1cccc(-c2nccc(NCCc3c[nH]c4ccc(OC)cc34)n2)c1 11.2 µM [falling, partial curve], CS(=O)(=O)Nc1cccc(-c2nc(-n3ccnc3)c3ccccc3n2)c1 12.6 µM [falling, partial curve], Cc1cnc(CNc2cc(-c3ccc(C(=O)N(C)C)cc3)ncn2)cn1 14.1 µM [falling, partial curve], COc1cccc(-c2cc(NCc3ccccc3OC)ncn2)c1 12.6 µM [falling, partial curve], COc1cccc(-c2nccc(NCc3ccccc3)n2)c1 12.6 µM [falling, partial curve]

Potency, inactive:
CCNc1ncc2nc(-c3cc(F)cc(F)c3)c(=O)n(CCOC)c2n1, COc1cccc(Nc2ncc3nc(-c4ccc(F)cc4)c(=O)n(C)c3n2)c1, CN(Cc1ccco1)c1ncncc1-c1cccc(C#N)c1, CN(C)c1ncc2nc(-c3cccc(C#N)c3)c(=O)n(C[C@H]3CCCO3)c2n1, COc1ncc2nc(-c3cn(C)c4ccccc34)c(=O)n(C)c2n1

Reference: PubChem BioAssay (NCATS)
